Among all 310,000 compounds or so, about 14,000 (4.5%) showed an effect of 50% or more. Effects have a minus sign here. The list shows a part of the results.
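Note: peak tail current of the secondary pulse compared with the same well before compound.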

The target in this assay is human ether-à-go-go-related gene (hERG) potassium channel (human, UniProt Q12809). Briefly: primary screen, population patch clamp on CHO cells stably expressing hERG.
human ether-à-go-go-related gene (hERG) potassium channel, sequence (Q12809 whole entry, looked up): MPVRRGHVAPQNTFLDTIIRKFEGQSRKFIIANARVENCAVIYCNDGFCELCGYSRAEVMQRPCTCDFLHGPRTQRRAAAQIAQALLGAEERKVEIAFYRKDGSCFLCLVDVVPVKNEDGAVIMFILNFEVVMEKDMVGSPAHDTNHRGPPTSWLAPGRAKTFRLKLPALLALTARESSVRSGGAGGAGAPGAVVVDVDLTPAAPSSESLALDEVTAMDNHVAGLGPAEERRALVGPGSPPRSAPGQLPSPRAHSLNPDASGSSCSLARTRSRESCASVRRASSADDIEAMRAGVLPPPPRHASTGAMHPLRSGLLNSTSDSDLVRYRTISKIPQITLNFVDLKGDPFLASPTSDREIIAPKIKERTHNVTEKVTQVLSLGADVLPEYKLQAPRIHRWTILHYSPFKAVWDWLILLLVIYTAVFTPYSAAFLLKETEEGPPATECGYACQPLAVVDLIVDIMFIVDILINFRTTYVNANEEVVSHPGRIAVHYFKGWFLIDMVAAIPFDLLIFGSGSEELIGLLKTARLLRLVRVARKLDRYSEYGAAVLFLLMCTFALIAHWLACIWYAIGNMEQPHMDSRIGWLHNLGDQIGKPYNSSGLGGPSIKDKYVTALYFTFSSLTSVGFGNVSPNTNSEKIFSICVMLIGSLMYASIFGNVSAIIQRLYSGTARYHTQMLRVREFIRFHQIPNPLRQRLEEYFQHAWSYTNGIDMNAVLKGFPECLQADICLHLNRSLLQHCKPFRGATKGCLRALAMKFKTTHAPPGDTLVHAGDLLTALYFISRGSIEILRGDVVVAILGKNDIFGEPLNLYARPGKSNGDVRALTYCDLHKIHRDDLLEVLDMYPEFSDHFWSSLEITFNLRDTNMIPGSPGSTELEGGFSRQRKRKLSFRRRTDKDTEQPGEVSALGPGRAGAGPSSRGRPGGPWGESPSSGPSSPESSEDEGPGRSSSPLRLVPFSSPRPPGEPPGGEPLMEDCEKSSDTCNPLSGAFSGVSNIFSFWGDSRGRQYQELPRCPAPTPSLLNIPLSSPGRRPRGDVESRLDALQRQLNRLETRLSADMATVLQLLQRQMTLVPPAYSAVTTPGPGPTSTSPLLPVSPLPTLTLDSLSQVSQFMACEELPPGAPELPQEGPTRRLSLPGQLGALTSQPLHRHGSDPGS
As for `CCOC(=O)NC(=O)/C(C#N)=N\Nc1cccc(OC)c1`, the “hERG current change (%, negative = inhibition) at 10uM” value was determined as 24%.
For `O=C(c1ccccc1)N1N=C(c2ccccc2O)CC1c1ccccc1` (stereo not shown) the value was 6.88%; for `Cc1ccc(F)cc1NC(=O)C1CCN(c2cnccn2)CC1`, -1.38%; for `CCN(CC)C(=O)/C(NC(=O)c1ccccc1)=C(/Sc1ncccn1)c1ccccc1`, 5.92%.
For `O=C(N/N=C/c1ccc(O)cc1)/C(=C/c1ccccc1)CCO` the value was -9.24%.
For `CCOc1ccccc1/C=C(\C#N)C(=O)NC1CC1` the value was 13.6%; for `CCOc1cc(CNC2CCCC2)ccc1OCc1ccccc1Cl.Cl`, -50.6%.
Consider `Clc1cccc(Cl)c1CSc1nnc(-c2ccncc2)s1`, for which the “hERG current change (%, negative = inhibition) at 10uM” value is given as -14.6%.
For `Cc1ccc(CNS(=O)(=O)c2ccccc2[N+](=O)[O-])cc1`, the “hERG current change (%, negative = inhibition) at 10uM” value is listed as 18.1%.
For `CCOc1[nH]n(-c2ccccc2)c(=O)c1C=Nc1ccccc1`, the “hERG current change (%, negative = inhibition) at 10uM” value is listed as -2.58%.
For `CCOCCCn1c(=N)c(C(=O)NCCN2CCOCC2)cc2c(=O)n3cccc(C)c3nc21`, the “hERG current change (%, negative = inhibition) at 10uM” value is -53.6%.
Take `COc1ccc(-n2nc(N)c3c(=O)oc(N(C)C)nc32)cc1`: the “hERG current change (%, negative = inhibition) at 10uM” value was 9.77%.
`Clc1ccc(N2CCN(c3nc4nonc4nc3N3CCSCC3)CC2)nc1`: the “hERG current change (%, negative = inhibition) at 10uM” value is -14.1%.
Turning to `CCCOc1ccc2cc(-c3ccccn3)c(=O)oc2c1`, the “hERG current change (%, negative = inhibition) at 10uM” value is given as -12.3%.
Turning to `O=C(Nc1nc2c(s1)CN(Cc1ccccc1)CC2)c1cccc(S(=O)(=O)N2CCc3ccccc32)c1`, the “hERG current change (%, negative = inhibition) at 10uM” value is 8.42%.
For `Cn1c(=O)n(C)c2cc([N+](=O)[O-])c(N3CCN(C(=O)C(C)(C)C)CC3)cc21`, the “hERG current change (%, negative = inhibition) at 10uM” value is -8.56%.
Consider `CC1=NN(C(=O)c2csc(C(C)C)c2)C(O)(C(F)(F)F)C1` (stereo not shown), for which the “hERG current change (%, negative = inhibition) at 10uM” value is listed as -9.64%.
For `Cc1cccc(C(=O)NNC(=O)C2CCCO2)c1` (stereo not shown) the value was -7.56%.
`Cc1ccnc(NC(=O)c2ccc(Cl)cc2Cl)n1`: the “hERG current change (%, negative = inhibition) at 10uM” value is -0.909%.
For `O=C(O)CCCNC(=O)CCCNC(=O)C(c1ccccc1)c1ccccc1` the value was 40.1%; for `Cc1[nH]c(=O)[nH]c(=O)c1S(=O)(=O)Nc1ccc(Br)cc1F`, 8.85%; for `Cc1cccc(NS(=O)(=O)c2csc(C(N)=O)c2)c1C`, 9.1%.
As to `O=C(c1ccc(Cl)cc1)N(Cc1ccccc1F)N1C(=O)CCCC1=O`, the “hERG current change (%, negative = inhibition) at 10uM” value was -4.85%.
On to `O=C(N/N=C/C=C/c1ccco1)c1cccc([N+](=O)[O-])c1`, for which the “hERG current change (%, negative = inhibition) at 10uM” value is recorded as -4.02%.
Turning to `O=C(Nc1ccc(Cl)c(S(=O)(=O)N2CCOCC2)c1)[C@@H]1CCCN1C(=O)c1cccs1`, the “hERG current change (%, negative = inhibition) at 10uM” value is -57.6%.
For the compound `CC(C)OC(=O)Cc1ccccc1`, the “hERG current change (%, negative = inhibition) at 10uM” value is 11.7%.
For `CCc1ccccc1NC(=S)N1N=CCC1c1ccccc1` (stereo not shown) the value was -15.3%; for `CCCCNc1cc(=O)oc2ccccc12`, -9.92%.
For `CC(C)c1ccc(NC(=O)Nc2cnccn2)cc1`, the “hERG current change (%, negative = inhibition) at 10uM” value is reported as -20.3%.
For `CNc1c(NS(=O)(=O)c2ccc(F)cc2)c(=O)oc2ccccc12`, the “hERG current change (%, negative = inhibition) at 10uM” value turned out to be 15.1%.
In the case of `COC(=O)Cn1cnc2c(nnn2Cc2ccc(Cl)cc2)c1=O`, the “hERG current change (%, negative = inhibition) at 10uM” value is 49.3%.
Regarding `COCCSc1nnc(NC(=O)c2ccc(OC)c([N+](=O)[O-])c2)s1`, the “hERG current change (%, negative = inhibition) at 10uM” value amounted to 2.61%.
With `COc1ccc2oc(C(=O)N(C)Cc3ccc(OC(F)F)cc3)c(C)c2c1`, the “hERG current change (%, negative = inhibition) at 10uM” value is reported as -53.8%.
`CCCc1cc(=O)n2[nH]c(-c3ccc(Cl)cc3)cc2n1`: the “hERG current change (%, negative = inhibition) at 10uM” value is given as -11.6%.
For `O=C(c1cccs1)N(Cc1cc2ccccc2[nH]c1=O)CC1CCCO1` (stereo not shown) the value was -9.66%; for `Cc1nn(C)c2ncc(C(=O)c3cc(F)ccc3O)cc12`, 9.01%.
Take `O=C1CC(c2ccccc2)=NN1c1ccc([N+](=O)[O-])cc1`: the “hERG current change (%, negative = inhibition) at 10uM” value amounted to 19.6%.
For `O=C(CSc1nnc(-c2ccco2)o1)N1CCN(c2ccccc2)CC1` the value was 11.5%; for `CCc1nnc(NC(=O)c2c(C)nn(-c3ccccc3)c2Cl)s1`, 17.8%.
Turning to `COc1cccc(N2CC(O)=C(c3nc4ccccc4c(=O)[nH]3)C2=N)c1`, the “hERG current change (%, negative = inhibition) at 10uM” value was -0.385%.
`COc1ccc(OC)c2c1nc1n2CCS1`: the “hERG current change (%, negative = inhibition) at 10uM” value is on record as -6.87%.
Take `COc1cc(OC)c(NC(=S)Nc2cccc(C)c2)cc1Cl`: the “hERG current change (%, negative = inhibition) at 10uM” value came out at 10.3%.
For the compound `O=c1c2ccccc2nc(-c2ccco2)n1-c1nccs1`, the “hERG current change (%, negative = inhibition) at 10uM” value was -17.1%.
Turning to `Clc1ccc(/C=N/Nc2nc(Cl)nc3ccccc23)cc1`, the “hERG current change (%, negative = inhibition) at 10uM” value is given as 25%.
Consider `COc1cc(C(=O)NC(=S)NNC(=O)[C@H]2C[C@@H]2c2ccccc2)cc(OC)c1OC`, for which the “hERG current change (%, negative = inhibition) at 10uM” value was determined as 17.3%.
`Cc1c(-c2nc(-c3ccc(C(C)(C)C)cc3)no2)n(C)oc1=O`: the “hERG current change (%, negative = inhibition) at 10uM” value was determined as 14.4%.
Turning to `COc1ccc(CNC(=O)C(OC(=O)c2ccco2)c2ccc(F)cc2)cc1` (stereo not shown), the “hERG current change (%, negative = inhibition) at 10uM” value was -11.5%.
On to `COC(=O)C1=C(C)N(C)C(C)=C(C(=O)OC)C1c1ccc(Cl)cc1`, for which the “hERG current change (%, negative = inhibition) at 10uM” value amounted to 17.7%.
Take `COc1ccccc1NC(CC(=O)c1ccccc1)C(=O)OCC(=O)c1ccc(F)cc1` (stereo not shown): the “hERG current change (%, negative = inhibition) at 10uM” value is -14.3%.
Regarding `Cc1n[nH]c(C)c1CN(C)C(=O)C1CCC(=O)N(CCc2cccc(F)c2)C1` (stereo not shown), the “hERG current change (%, negative = inhibition) at 10uM” value was determined as 5.51%.
Consider `CCC1CCCCN1CCn1c(=S)[nH]c2cc(OC)c(OC)cc2c1=O` (stereo not shown), for which the “hERG current change (%, negative = inhibition) at 10uM” value is on record as -25.4%.
Turning to `CC(C)(C)c1nc(SCC(=O)N2CCCC2)c2ccccc2n1`, the “hERG current change (%, negative = inhibition) at 10uM” value amounted to 12.2%.
For `O=C(COC(=O)c1cccc([N+](=O)[O-])c1)NC1CCCC1` the value was 13.1%; for `CCOC(=O)N1CCN(C(=O)c2ccc(NC(C)=O)cc2)CC1`, 10.1%; for `COc1ccc(OCCOCCN2CCc3ccccc3C2)cc1`, -69.9%.
For the compound `CC(C)(C)NCc1cc(Br)ccc1OC1CCCC1.Cl`, the “hERG current change (%, negative = inhibition) at 10uM” value is -53.8%.
Turning to `Cc1cc(-c2nnc3n2N=C(c2ccc(-c4ccccc4)cc2)CS3)n[nH]1`, the “hERG current change (%, negative = inhibition) at 10uM” value was -15.7%.
Turning to `Cc1ccc(NC(=O)CNc2cccc(S(=O)(=O)N3CCOCC3)c2)cc1F`, the “hERG current change (%, negative = inhibition) at 10uM” value is -6.71%.

The values are drawn from paper PMC4336329 (PLoS ONE, 2015).
